In the supplement of paper PMC4967469:
Lines with a small IC50 respond at low doses; a fit beyond the top or the lowest dose is shown as a bound at that dose. AUC, from the same fit, is the share of area under the viability curve across the 256-fold dose range; the more sensitive the line, the further below 1. The top dose, if marked as inferred, comes from the curve model; the source does not state it. For some assays here: Where an entry number is given, a second screen of the drug exists; the two often differ.

What was measured:
AKT inhibitor VIII = compound: O=c1[nH]c2ccccc2n1C1CCN(Cc2ccc(-c3[nH]c4cc5ncnc5cc4nc3-c3ccccc3)cc2)CC1 [AKT inhibitor VIII]; test: Viability of human cancer cell lines after 72 h of drug (GDSC screen); settings: top dose inferred
Method: (§1)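 Human cancer cell lines in 384-well plates, medium with 10% serum, drug for 72 h over a 256-fold dose range (nine 2-fold or five 4-fold steps up to the top dose). Adherent lines were fixed and stained with the nucleic acid dye Syto60, suspension lines read with resazurin; signal relative to control wells, capped at 0 and 100%. One two-parameter sigmoid per drug and line, fitted in a mixed model over all curves with the slope shared within a line.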

AICAR = compound: NC(=O)c1ncn([C@@H]2O[C@H](CO)[C@@H](O)[C@H]2O)c1N [AICAR]; test: as above; settings: top dose 2000 µM; top dose inferred
Method: as §1

[1] = top dose 2.56 µM, screen: GDSC drug entry 171
[2] = top dose 10.24 µM, screen: GDSC drug entry 228

| Cell Line | AUC (AKT inhibitor VIII; [1]) | IC50 (AKT inhibitor VIII; [1]) [µM] | AUC (AKT inhibitor VIII; [2]) | IC50 (AKT inhibitor VIII; [2]) [µM] | AUC (AICAR) | IC50 (AICAR) [mM] |
| --- | --- | --- | --- | --- | --- | --- |
| PCI-4B (head and neck, adherent) | 0.844 | 1.69 | 0.904 | > 10.2 | 0.748 | 0.615 |
| PCI-6A (head and neck, adherent) | 0.916 | > 2.56 | 0.853 | 7.77 | 0.813 | 1.05 |
| PCI-15A (head and neck, adherent) | 0.987 | > 2.56 | 0.931 | > 10.2 | 0.981 | > 2 |
| PCI-30 (head and neck, adherent) | 0.971 | > 2.56 | 0.942 | > 10.2 | 0.882 | > 2 |
| PE/CA-PJ15 (head and neck, adherent) | 0.986 | > 2.56 | 0.977 | > 10.2 | 0.792 | 0.985 |
| PEO1 (ovary, adherent) |  |  | 0.936 | > 10.2 | 0.903 | > 2 |
| PF-382 (T-cell lymphoblastic leukaemia, suspension) | 0.958 | > 2.56 | 0.429 | 0.42 | 0.909 | > 2 |
| PFSK-1 (medulloblastoma, adherent) | 0.984 | > 2.56 | 0.909 | > 10.2 | 0.959 | > 2 |
| PL4 (pancreas, adherent) | 0.944 | > 2.56 | 0.972 | > 10.2 | 0.987 | > 2 |
| PL-21 (acute myeloid leukaemia, suspension) | 0.905 | > 2.56 | 0.509 | 0.681 | 0.763 | 0.835 |
| PSN1 (pancreas, adherent) | 0.988 | > 2.56 | 0.937 | > 10.2 | 0.815 | 0.888 |
| QGP-1 (pancreas, adherent) |  |  | 0.924 | > 10.2 | 0.95 | > 2 |
| QIMR-WIL (acute myeloid leukaemia, suspension) | 0.961 | > 2.56 | 0.569 | 0.983 | 0.828 | 1.18 |
| RC-K8 (B-cell lymphoma, suspension) | 0.993 | > 2.56 | 0.953 | > 10.2 | 0.854 | 1.26 |
| RCC10RGB (kidney, adherent) | 0.908 | > 2.56 | 0.936 | > 10.2 | 0.968 | > 2 |
| RCC-AB (kidney, adherent) |  |  | 0.82 | 8.37 | 0.961 | > 2 |
| RCC-ER (kidney, adherent) |  |  | 0.926 | > 10.2 | 0.877 | > 2 |
| RCC-FG2 (kidney, adherent) |  |  | 0.86 | > 10.2 | 0.891 | > 2 |
| RCC-JF (kidney, adherent) |  |  | 0.87 | > 10.2 | 0.889 | > 2 |
| RCC-JW (kidney, adherent) |  |  | 0.953 | > 10.2 | 0.857 | 1.69 |
| RCC-MF (kidney, adherent) |  |  | 0.886 | > 10.2 | 0.93 | > 2 |
